Among all 420,000 compounds or so, about 50,000 (12%) were called active. Inconclusive means that the source gave no clear call. Such entries were picked first, then a sample of the others. The call rests on the fitted dose curve; in most records, active means well fitted inhibition curve with a large enough effect; inconclusive means small, poorly fitted or top-dose-only effect; inactive means flat fitted curve, though single readings scatter. Potencies of inconclusive entries are left out as doubtful fits.
Experiment: qHTS for Inhibitors of human tyrosyl-DNA phosphodiesterase 1 (TDP1): qHTS in cells in presence of CPT; further: nearly all actives have a fitted effect of over 55% in size
Conditions: chicken DT40 Tdp1-/-;hTDP1 cells + 20 nM CPT, ATP luminescence, 48 h; activity change, negative = growth inhibition: at 46.2 µM (top of the series) unless noted
Summary of the method: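 Cell growth measured by CellTiter-Glo luminescence after a minimum 48 h, 37 C compound exposure with 20 nM CPT in Tdp1-knockout DT40 cells stably expressing hTDP1, seeded 400/well; qHTS titration format.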
On the % scale 0 is the no-effect control and ±100 the full control effect; potency means the concentration at half of the fitted maximal effect; tags describe the fitted curve by direction and shape.

Row | Compound | Potency | activity change, negative = growth inhibition
1 | O=C(N/N=C/C=C\c1ccccc1[N+](=O)[O-])c1cccs1 | inconclusive [inhibitor, single point] | –
2 | O=C(O)CSc1nnc(-c2ccc(Cl)cc2Cl)n1-c1ccc(Br)cc1 | – | inactive: -5.68%
3 | O=C(Nc1ccc(N2CCN(C(=O)c3cccs3)CC2)c(Cl)c1)c1ccco1 | inconclusive [inhibitor, single point] | –
4 | CN(Cc1ccccc1)C(=O)c1ccc(NC(=O)Cc2ccc(NC(=O)C3CCN(C(=O)C4CCC4)CC3)cc2)cc1 | inconclusive [inhibitor, partial curve] | –
5 | O=C(Nc1ccccc1N1CCN(c2ccccc2)CC1)C1CCCCC1 | – | inactive: -2.6%
6 | CCCNC(=O)c1ccccc1NC(=O)COc1cccc2c1OC(C)(C)C2 | inconclusive [inhibitor, single point] | –
7 | CSc1cccc(NC(=O)CCCOc2ccc(Cl)cc2C)c1 | active: 18.4 µM | –
8 | CCN(CC)CCNS(=O)(=O)c1ccc(/C=C/C(=O)O)cc1 | – | inactive: -6.79%
9 | O=C(C1CCN(C2CCN(C/C=C/c3ccccc3)CC2)CC1)N1CCOCC1 | inconclusive [inhibitor, single point] | –
10 | Cc1ccc(S(=O)(=O)c2nc(-c3ccccc3)oc2N2CCCCCC2)cc1 | active: 23.1 µM | –
11 | O=C1COc2ccc(C(=O)CSc3nnc(-c4cccs4)n3Cc3ccccc3)cc2N1 | inconclusive [inhibitor, single point] | –
12 | Cc1c2cnccc2c(C)c2c1oc1ccccc12 | inconclusive [inhibitor, single point] | –
13 | O=C(CNCCc1ccccc1)Nc1ccc(C(=O)N2CCCCC2)cc1 | inconclusive [inhibitor, single point] | –
14 | Cc1ccc(C(=O)NNC(=O)c2cc3ccccc3cc2O)cc1 | inconclusive [inhibitor, single point] | –
15 | CNS(=O)(=O)c1ccc2nc(NC(=O)c3ccc(N4C(=O)CCC4=O)cc3)sc2c1 | inconclusive [inhibitor, single point] | –
16 | COc1ccc(/C=C/c2onc(C)c2S(=O)(=O)N2CCC(C(=O)N3CCC(C)CC3)CC2)cc1 | active: 16.4 µM | –
17 | CC(=O)Nc1cc(-c2cccc(C(=O)N(C)C)c2)cn2c(-c3ccccc3)cnc12 | inconclusive [inhibitor, single point] | –
18 | Cc1cc(N)n2nc(C)c(-c3ccc(Cl)cc3)c2n1 | inconclusive [inhibitor, single point] | –
19 | COc1ccc(-c2nc(C#N)c(NCCCn3ccnc3)o2)cc1OC | – | inactive: 3.41%
20 | COc1ccc2[nH]c3c(=S)nc[nH]c3c2c1 | inconclusive [inhibitor, single point] | –
21 | Cc1[nH]ccc(=O)c1Cc1c(Cl)cccc1Cl | – | inactive: 26%
22 | COc1ccc(N2CCC(CNC(=O)Nc3ccc(Cl)cc3)C2)cc1 (stereo not given) | inconclusive [inhibitor, single point] | –
23 | COc1cccc(C(=O)NCC(c2ccc(N(C)C)cc2)N2CCOCC2)c1OC (stereo not given) | active: 14.6 µM | –
24 | CCC(CO)Oc1cc(NC(=O)c2ccccc2N)c2ncn(C(C)C)c2c1 (stereo not given) | inconclusive [inhibitor, single point] | –

Row | Compound | Potency | activity change, negative = growth inhibition
25 | Nc1c(C(=O)NC2CCCCC2)nsc1C(=O)OCC(=O)NC1CCCCC1 | inconclusive [inhibitor, single point] | –
26 | COc1ccccc1CN1C[C@@H]2C[C@@H](c3cccc(C)n3)N3CCC[C@@]23C1=O | – | inactive: 14.7%
27 | CN(C)c1ccc(C(c2ccc(N(C)C)cc2)C(O)c2ccccc2)cc1 (stereo not given) | inconclusive [inhibitor, single point] | –
28 | CCCCn1c(Cl)nc2c1c(=O)n(C)c(=O)n2C | – | inconclusive: -30.3% [inhibitor]
29 | Cc1cccc(N2CCN(C(=O)c3ccc(-n4cncn4)c([N+](=O)[O-])c3)CC2)c1C | active: 20.6 µM | –
30 | O=C(c1ccc2c(Cl)c3c(nc2c1)CCCC3)N1CCC(N2CCCCC2)CC1 | inconclusive [inhibitor, single point] | –
31 | CC1CC(C)CN(CC(=O)NNC(=O)COc2ccc(Cl)cc2)C1 (stereo not given) | – | inactive: -19.7%
32 | CC(=O)N1Cc2cc(C(=O)NCC(F)(F)F)nc(-c3cccc(-c4cc5ccccc5o4)c3)c2[C@H]1CCO | inconclusive [inhibitor, partial curve] | –
33 | O=C(CC1S/C(=N/N=C/C=C/c2ccccc2)NC1=O)Nc1ccc(C(=O)O)cc1 (stereo not given) | inconclusive [inhibitor, single point] | –
34 | CCOC(=O)c1c(S(=O)(=O)N2CCCC(C(=O)Nc3cc(C)ccc3OC)C2)c(C)n(C)c1C (stereo not given) | inconclusive [inhibitor, partial curve] | –
35 | Cc1cc(=O)oc2c3c(cc(OCC(=O)NCc4ccccc4)c12)OC(C)(C)CC3 | inconclusive [inhibitor, single point] | –
36 | CCN(CC(=O)Nc1c(F)cccc1F)C(=O)c1c(-c2ccccc2Cl)noc1C | – | inactive: -27.6%
37 | COc1ccc(NC(=O)C2Cc3c(-c4ccc5c(c4)OCO5)ccnc3O2)cc1OC (stereo not given) | active: 9.2 µM | –
38 | Cc1ccc(CN2CCN(Cc3ccc(-n4cccn4)cc3)CC2CCO)cc1 (stereo not given) | – | inactive: -6.05%
39 | CCc1ccc(N2CC(C)Cn3c2nc2c3c(=O)[nH]c(=O)n2C)cc1 (stereo not given) | inconclusive [inhibitor, partial curve] | –
40 | Cc1cc(OC(=O)N2CCCCC2)cc(C)c1Cl | inconclusive [inhibitor, single point] | –
41 | COc1ccc(CCNC(=O)CCCN2C(=O)C(c3ccccc3)Oc3cccnc32)cc1OC (stereo not given) | inconclusive [inhibitor, single point] | –
42 | O=C(NCc1ccccc1Cl)C1CCC(=O)N(C2CCCC2)C1 (stereo not given) | – | inactive: -23.7%
43 | OC(COc1ccc(OCC(O)CN2CCCCC2)cc1)CN1CCCCC1 (stereo not given) | – | inactive: -25%
44 | COc1ccc(N2CCN(C(c3cccs3)C(C)NC(=O)c3ccco3)CC2)cc1 (stereo not given) | inconclusive [inhibitor, single point] | –
45 | CC(C)c1ccc(/C=N/n2nnnc2Nc2ccccc2)cc1 | inconclusive [inhibitor, single point] | –
46 | Cc1ccn2c(NCc3ccco3)c(-c3ccccc3)nc2c1 | inconclusive [inhibitor, single point] | –
47 | COc1ccc(-c2csc(NC(=S)NC(=O)/C=C/c3ccccc3)n2)cc1Br | inconclusive [inhibitor, single point] | –
48 | Cc1cc(SCC(=O)c2cccs2)n2nc(C)c(-c3ccccc3)c2n1 | inconclusive [inhibitor, single point] | –

Row | Compound | Potency | activity change, negative = growth inhibition
49 | C[C@H](NC(=O)[C@@H]1Cc2ccccc2CN1)C(=O)NC1CCCC1 | – | inactive: -2.47%
50 | Cc1cccc(CC(=O)N2CCCC2)c1 | – | inactive: 1.71%
51 | COc1cccc(C2=NN(C(C)=O)C(c3cn(-c4ccccc4)nc3-c3cccs3)C2)c1 (stereo not given) | – | inactive: 5.43%
52 | CCCCNC(=O)CCn1c(=O)c2ccccc2n(Cc2cc(C)ccc2C)c1=O | inconclusive [inhibitor, single point] | –
53 | COc1ccc(C(=O)NCCS(=O)(=O)N2CCN(Cc3ccccc3)CC2)cc1 | – | inactive: -20%
54 | CCOc1ccc(CCNC(=O)CCc2cn(Cc3ccc(C)cc3)c3ccccc23)cc1 | inconclusive [inhibitor, single point] | –
55 | O=C(Cc1cccs1)N1CCCC(c2nc3c(nnn3Cc3ccc(F)cc3)c(=O)[nH]2)C1 (stereo not given) | – | inactive: -24.6%
56 | O=C(CSc1nnc(Cc2ccccc2)o1)c1ccc2c(c1)OCO2 | – | inactive: -14.1%
57 | COc1cc(-c2cnc3c(NC=O)cc(-c4ccccc4)cn23)cc(OC)c1OC | active: 0.0092 µM | –
58 | Cc1ccc(C)c(N2CCN(C(=O)CCc3nc(-c4cccc(Cl)c4)no3)CC2)c1 | inconclusive [inhibitor, partial curve] | –
59 | CNc1nc2c(c(=O)n(C)c(=O)n2C)n1Cc1ccccc1 | inconclusive [inhibitor, partial curve] | –
60 | Cc1ccc2cc(CN(Cc3ccco3)C(=O)c3ccccc3)c(=O)[nH]c2c1C | inconclusive [inhibitor, partial curve] | –
61 | Cc1ccc(NC(=O)CCNC(=O)c2ccc(Br)cc2)cc1S(=O)(=O)N1CCCCCC1 | inconclusive [inhibitor, single point] | –
62 | COC(=O)C(C(=O)OC)c1ncccc1NS(=O)(=O)c1ccc(C)cc1 | – | inactive: 8.38%
63 | O=C(Nc1nc(-c2ccccc2)cs1)C1c2ccccc2Oc2ccccc21 | – | inactive: -21.5%
64 | COc1ccc(Cc2c(-c3ccc(OC)c(OC)c3)nc3cc(C)c(Br)c(C)n23)c(C)c1 | – | inconclusive: -35.4% [inhibitor]
65 | CCC(=O)NC(=S)Nc1ccc(NC(=O)COc2ccc([N+](=O)[O-])cc2)cc1 | inconclusive [inhibitor, single point] | –
66 | COc1ccc2c(c1)c(=O)c(C(=O)c1ccc(F)cc1)cn2CC(=O)Nc1ccc(F)cc1 | inconclusive [inhibitor, single point] | –
67 | Cc1ccc2oc(/N=C(\N)NC(=O)C(C)(C)C)nc2c1 | inconclusive [inhibitor, single point] | –
68 | O=C(c1ccc(CSc2nc3ccncc3n2Cc2ccccc2F)cc1)N1CCCCCC1 | inconclusive [inhibitor, single point] | –
69 | Cc1ccccc1CN1CCc2cc([N+](=O)[O-])ccc21 | inconclusive [inhibitor, single point] | –
70 | CCCC(=O)Nc1nnc(SCc2cc(=O)c3cc(C)ccc3[nH]2)s1 | inconclusive [inhibitor, full curve] | –

From PubChem BioAssay AID686979 (National Center for Advancing Translational Sciences (NCATS), 2013)
